Values joined by “and” are separate entries in the source; they are usually repeats but may differ in a detail not shown here. Identical values can stand only once. The whole screen tested about 48,000 compounds, of which about 1,200 (2.5%) were called active. Another 2% or so got no clear call; they are omitted.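 Rule for the calls: active = activation of at least 60% and not above a set upper limit (about 1 call in 100 departs from these limits); inconclusive = activation of 40% to 60%, or above that upper limit; inactive = activation under 40%.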 Some of the results follow.
Biological target: Probable G-protein coupled receptor 32 (Homo sapiens) (UniProt O75388)
Assay: qHTS for Agonists of Human Resolvin D1 Receptor DRV1; note: 0% is about no effect
Conditions: CHO-K1 GPR32 beta-arrestin PathHunter luminescence, 90 min; at 76.9 µM; active compounds read high; zero percent set by DMSO-only wells
Outline: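 Beta-arrestin recruitment read-out: luminescence from complemented beta-Gal in CHO-K1 GPR32 PathHunter cells, measured 1 h after detection reagent at ambient temperature following 90 min compound exposure at 37 °C; DMSO served as basal (EC0) control.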

Sequence of UniProt O75388 (O75388 whole entry, looked up): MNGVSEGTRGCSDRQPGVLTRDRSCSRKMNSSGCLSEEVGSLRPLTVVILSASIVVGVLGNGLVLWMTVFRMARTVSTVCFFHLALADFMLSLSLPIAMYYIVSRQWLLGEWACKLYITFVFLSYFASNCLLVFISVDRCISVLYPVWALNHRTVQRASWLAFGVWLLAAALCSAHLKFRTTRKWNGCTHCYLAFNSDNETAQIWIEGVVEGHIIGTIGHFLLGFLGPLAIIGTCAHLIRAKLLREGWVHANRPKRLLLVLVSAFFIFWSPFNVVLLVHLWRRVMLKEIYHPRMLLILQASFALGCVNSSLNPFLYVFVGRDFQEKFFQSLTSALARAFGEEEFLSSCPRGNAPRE

activation, inactive:
CC1=C(C(=O)Nc2ccc(C)cc2C)C(c2ccc(Br)cc2)n2ncc(C(=O)Nc3cccc(C)c3)c2N1 (stereo not drawn) -9.76%, CCOc1ccc(NC(=O)Cn2c(=O)n(CCCCC(=O)NCc3ccc4c(c3)OCO4)c(=O)c3ccccc32)cc1 14.1%, CCN(CC)c1ccc(-n2nc3cc(C)c(NC(=O)c4ccccc4C)cc3n2)c(C)c1 -6.01%, CCc1ccc(S(=O)(=O)NCc2nc3cccnc3n2Cc2cccc(OC)c2)cc1 -23.9%, CCCCCn1c(CNC(=O)c2ccccc2)nc2ccccc21 22.7%, Cc1ccccc1Cn1c(=O)n(CC2CCC(C(=O)N3CCOCC3)CC2)c(=O)c2sccc21 (stereo not drawn) -8.77%, CCOC(=O)C1=C[C@]2(CC)CCCN3CCc4c(n1c1ccccc41)[C@@H]32 49.1% and -21.6%, COc1ccc(S(=O)(=O)c2nnn(-c3ccc(C(C)C)cc3)c2C)cc1 -3.25%, Cc1c(Cl)cccc1Nc1nn2c(=O)c3ccc(C(=O)NCCC4=CCCCC4)cc3nc2s1 -12.5%, Cc1cc(C)c(S(=O)(=O)N2CCN(Cc3ccc4c(c3)OCO4)CC2)cc1C -31.9%, Cc1ccc2c(c1)c1c3n2CCN(C(=O)c2ccc(C(F)(F)F)cc2)C3CCC1 (stereo not drawn) 0.484%, COc1ccc(-c2cc(C(F)(F)F)n3nc(C(=O)Nc4cc(C)ccc4C)cc3n2)cc1 7.62%, CCOC(=O)c1sc2ccccc2c1S(=O)(=O)N1CCN(c2cc(C)ccc2C)CC1 -16%, O=C(C1CCN(c2ncnc3c2nc2n3CCCCC2)CC1)N1CCN(c2ccc(Cl)cc2)CC1 -2.51%, Cc1nn(C(=O)c2cccc(F)c2)c(C)c1S(=O)(=O)N1CCOCC1 -4.89%, COc1ccc(OCC(=O)Nc2ccc3nn(-c4ccc(OC)cc4)nc3c2)cc1 -6.97%, COc1ccc(CCNC(=O)c2cc3c(=O)oc4ccc(C)cc4c3s2)cc1OC 28.4%, CCNC(=O)c1cc2n(n1)CCCN(Cc1ccc(C)cc1)C2=O 9.92%, O=C(CCSCc1ccc(Cl)cc1)NCc1ccc(F)cc1Cl 12.1%, CS(=O)(=O)N1CCc2cc(C(=O)N3CCN(c4ccccc4F)CC3)ccc21 -1.06%, O=C(CSc1nccn1Cc1ccc(F)cc1)NCc1ccc(F)cc1 5.38%, Cc1cc(C)c(NC(=O)c2c(C)nn(-c3ccc(F)cc3)c2-n2cccc2)c(C)c1 -2.04%, CN1CCN(C(=O)Cn2ncc3c4ccccc4n(Cc4ccc(Cl)cc4)c3c2=O)CC1 1.3%, Cc1ccc(NC(=O)c2c(NC(=O)c3ccccc3Cl)sc3c2CCC3)cc1 5.92%, COc1ccc(Nc2cc(C(=O)NC3CCCC3)c3ccccc3n2)cc1 36%, COc1ccc(C2C=C(c3ccc(Br)cc3)Nc3nnnn32)c(OC)c1 (stereo not drawn) -33.1%, COc1ccccc1CNc1nc2c(S(=O)(=O)c3ccccc3)nnn2c2ccc(Cl)cc12 -6.99%, CCc1nn2c(=O)c(S(=O)(=O)Nc3ccc(Br)cc3F)c(C)nc2s1 0.751%, O=C(NC1CCCCC1)c1ccc(CSc2nc3ccncc3n2Cc2ccc(F)cc2)cc1 13.9%, O=C1Cc2cc(Cl)ccc2N1 -44.3%, Cc1ccccc1NC(=O)Cn1nnc(C(=O)NCCc2ccccc2)c1N -27.3%, NC(=O)c1nn2c(C(F)(F)F)cc(-c3ccc(Br)cc3)nc2c1Cl -10.2%, CC(=O)c1cccc(NC(=O)Cn2nc(C(F)(F)F)c3c2CCC3)c1 -6.73%, Cc1ccc2nc(Cl)c3cc(C(=O)NCCCN(C)Cc4ccccc4)sc3c2c1 -23.5%, CSc1nc(=O)c2c(n1C)NC(=O)CC2c1cc(F)cc(F)c1 (stereo not drawn) -10.3%, COc1ccc(OC)c(NC(=O)CN2CCCN(Cc3ccccc3Cl)S2(=O)=O)c1 -15.5%, O=C(CNC(=O)c1ccc(F)cc1)OCc1cc(=O)n2nc(C3CCCCC3)sc2n1 -10.5%, CCOc1ccccc1C(=O)NCc1nc2cccnc2n1Cc1ccc(C)cc1 -18.3%, CCOc1cc(CNC(=O)c2ccc3c(c2)N(C)C(=O)C2CCCCN32)ccc1OC (stereo not drawn) -0.889%, COc1ccc(CNC(=O)CCCn2nc(C)c3c(C)n(-c4ccc(C)cc4)nc3c2=O)cc1OC -18.3%, Cc1ccc(-n2ncc3c(NC4CCCCC4)ncnc32)cc1Cl -3.25%, Cc1ccc(N2CCN(C(=O)c3cnn(-c4ccc(C)c(C)c4)c3C3CCNCC3)CC2)c(C)c1 -8.04%, CCN(c1ccccc1)c1nnc(NC(=O)Nc2ccc(Br)c(C)c2)s1 5.02%, O=C(c1ccc2c(Cl)c3c(nc2c1)CCCC3)N1CCN(c2cccc(C(F)(F)F)c2)CC1 12.1%, O=C(CSc1nccn1Cc1ccco1)Nc1cc(C(F)(F)F)ccc1Cl -15.8%, CCOc1ccc(CNC(=O)CCS(=O)(=O)c2cc3c4c(c2)CCN4C(=O)CC3)cc1OC 2.49%, O=C(CN1C(=O)COc2ccc(S(=O)(=O)N3CCCCCC3)cc21)N1CCN(c2ccccc2F)CC1 -18.8%, COc1ccc2nc(NC(=O)c3cc(=O)c4cc(C)cc(C)c4o3)sc2c1 41.4%, CCc1ccc(S(=O)(=O)c2cn(CC)c3cc(N4CCCCC4)c(F)cc3c2=O)cc1 9.97%, Cc1ccc(CNC(=O)CN2CCN(Cc3ccc(F)cc3Cl)C2=O)cc1 27.6%, COc1cc(OC)c(NC(=O)C2CCN(S(=O)(=O)c3ccc4c(c3)oc(=O)n4C)CC2)cc1Cl -5.46%, COc1ccc(C(=O)N2CCN(CC(=O)N3CCOCC3)CC2)cc1 -19.9%, CCc1ccc(Nc2sc(C(=O)c3ccc(F)cc3)c(N)c2S(=O)(=O)c2ccccc2)cc1 -29.4%, Nc1c(C(=O)NCc2ccc(Cl)cc2)sc2nc(-c3ccc(F)cc3)ccc12 0.57%, COc1ccc(OC)c(NC(=O)CCNS(=O)(=O)c2ccc3c(c2)oc(=O)n3C)c1 -7.84%, COc1ccc(CCNC(=O)Cc2c(C)c3cc4c(C)coc4cc3oc2=O)cc1OC -9.3%, Cc1ccc(-n2c(=O)c3c(C)c(C)sc3n(Cc3ccc(F)cc3Cl)c2=O)cc1C -5.33%, CCOc1ccc(C2C(=O)N(C3CCCCC3)CC(=O)N2CCc2ccccc2)cc1OC (stereo not drawn) -21.1%, Oc1ccc(-c2nc3ccc(Cl)cn3c2Nc2ccc3c(c2)OCO3)cc1 -9.02%, CC(=O)c1ccc(NC(=O)Cn2ncc3c4ccccc4n(Cc4ccccc4)c3c2=O)cc1 -12.3%, COc1cc(C(=O)NCc2nc3cccnc3n2Cc2ccc(C)cc2)cc(OC)c1OC -13.6%, Cc1cc(C)c(NS(=O)(=O)c2ccc(-c3coc(C)n3)cc2)c(C)c1 11.5%, O=C1CC(=O)Nc2cc(S(=O)(=O)N3CCOc4ccc(Cl)cc43)ccc2N1 -10.7%, O=C(NCc1ccc(Cl)cc1)C1CCN(S(=O)(=O)c2ccccc2)CC1 -7.54%, COc1ccc(N(C(=O)c2ccccc2)S(=O)(=O)c2ccc3c(c2)n(C)c(=O)n3C)cc1 -12.1%, COc1ccccc1CNC(=O)CCn1cnc2ccccc2c1=O 0.868%, O=C(NC1CC(=O)N(c2ccc(F)cc2)C1)c1ccc2c(c1)OCO2 (stereo not drawn) -5.18%, O=C(c1ccc2c(c1)N(Cc1cccc(Cl)c1)C(=O)c1ccccc1S2=O)N1CCN(c2cccc(C(F)(F)F)c2)CC1 (stereo not drawn) -25.1%, Cc1cccc(Cn2nnc3c(=O)[nH]c(C4CCCN(C(=O)c5ccccc5Cl)C4)nc32)c1 (stereo not drawn) 11.4%, O=C(Cn1c(=O)n2nc(-c3cccc(F)c3)nc2c2ccccc21)N1CCN(c2ccc(F)cc2)CC1 6.94%, Cn1c(=O)c2c(ncn2Cc2ccc(Cl)cc2)n(C)c1=O 22.5%, CCN1CCN(C(c2ccccc2Cl)c2c(O)cc(C)n(Cc3ccco3)c2=O)CC1 (stereo not drawn) -12%, N#Cc1nc(/C=C/c2ccc(F)cc2)oc1NCc1ccc(F)cc1 13.7%, COc1ccc(N2CCN(C(=O)CNS(=O)(=O)c3ccc(Br)s3)CC2)cc1 13.1%, CC(NC(=O)c1ccc(F)cc1)c1nc2ccccc2[nH]1 (stereo not drawn) 2.57%, CCc1ccc(NC(=O)Cn2c(=O)n(-c3cc(OC)c(OC)c(OC)c3)c(=O)c3ccccc32)cc1 -9.12%, Cc1cc(C(=O)C(=O)Nc2nncs2)c(C)n1-c1ccc(Cl)cc1 5.82%, COc1ccccc1NC(=O)c1cn(-c2ccccc2)nc1-c1ccccc1 -8.27%, Cc1cccc(N2CCN(C(=O)c3noc4c3CCCCC4)CC2)c1C -15.9%, COc1cccc(C(=O)N(Cc2sccc2C)C2CCS(=O)(=O)C2)c1 (stereo not drawn) -13.7%, CC(C)(C)OC(=O)N1CCC(c2c(C(=O)NCc3ccc(F)cc3)cnn2-c2ccc(F)cc2)CC1 -6.11%, CCOC(=O)c1c(C)oc2nc(C)nc(N3CCN(c4ccc(C(C)=O)cc4)CC3)c12 -3.4%, Cc1ccc(-c2cn3c(n2)sc2cc(C(=O)NCCCN4CCCCC4)ccc23)cc1 15.8%

From PubChem BioAssay AID1346428 (National Center for Advancing Translational Sciences (NCATS), 2018)
